B1: chr20:57484439:57484440:+_ENSG00000087460_ENST00000306090|hu_mus|FALSE|FALSE (ssRNA)
RNA: GGGAGUUCUACAGUCCGACGAUCGCCGCCCACAUCGAACAUGUGGAAGUUGACUUUGUCCACCUGGAACUUGGUCUCAAAGAUUCCAGAGGUCAGGACACGGCAGCGAAGCAGGUCCUGGUCACUUGGCACGUAGUCGGCCUGCAACAGAGGAUUGAGCAUCA
B2: chr16:57473197:57473198:-_ENSG00000005194_ENST00000569370|hu_mus|FALSE|FALSE (ssRNA)
RNA: GGGAGUUCUACAGUCCGACGAUCGAUCCGGGCCAUCUCAGCCAGAACCUCAGCACUGUGCAGAGAGGUGCUUCCUGGGACUACACCCGACAGAAUGACAUCGAAGCUGGAUUCCUUAUGCGAAGACUGCAACAGCUGGGUGACCAACAGAGGAUUGAGCAUCA
B3: chr4:140556289:140556290:+_ENSMUSG00000036622_ENSMUST00000037055|mus_mus|mus_mus_mus_hu_False|48_68 (ssRNA)
RNA: GGGAGUUCUACAGUCCGACGAUCGAUGGAGCUCACCAGGCCCCCUUUUGCCGUGCAGAACCCUGUGCGAGUCACCACUGCCAGGACACGGGGUCCCACAUAGGCCCGGGCCUGCAAGAUGAGGGUCCCGCAGAAGAGUGUGUGCAACAGAGGAUUGAGCAUCA
B4: 89273121_89273405_2348_CDS_ENSG00000065243_ENST00000370521|human|control|control (ssRNA)
RNA: GGGAGUUCUACAGUCCGACGAUCAAACAUCUCAUUUGUGUUUUUAUAUUCAGCUAAAAGCACCUUUCCAAAAUGUCCUCUUCCCAAGACAGCACAACACCUGAAAUCUUGUAGAUUAAACUGAAACCUUUGCUGAGAUCUUCUCAACAGAGGAUUGAGCAUCA
B5: chr15:63447868:63447869:-_ENSG00000185088_ENST00000411926|hu_mus|FALSE|FALSE (ssRNA)
RNA: GGGAGUUCUACAGUCCGACGAUCGCCUUCUGUGAGCCUGGCUUUUCCUCCUGUGGGCUGGCACAACACAGUUGAACAACCCACACAAAGAACCACAGUCUGUGCAUGGCUGAAAACUGUAGUAAUCUUGUAGCAACCUGGACACAACAGAGGAUUGAGCAUCA
B6: chr14:90871293:90871294:+_ENSG00000198668_ENST00000553542|hu_hu|FALSE|FALSE (ssRNA)
RNA: GGGAGUUCUACAGUCCGACGAUCUGUAUUAAUCAUUAGCAAAUGGAACUUUAAGGAGUCCUUAUCAUUAAGGUAGUACAAGUAUUUAUAUUGUAAAACUGAUGUGUAGCUUGAUCUUUAGGGGACAGGACCACCAACCAAUACCAACAGAGGAUUGAGCAUCA
B7: chr12:39756943:39756944:-_ENSG00000139116_ENST00000544797|hu_mus|hu_hu_hu_mus_False|68_108 (ssRNA)
RNA: GGGAGUUCUACAGUCCGACGAUCGGUUUGGCUAUUACCCCCAAGGGAAUCCUGCAAGAGUCUUGUCAGCUUGGAAUCUCUGUAAGGGACAUGGGUGGCUCUCUUGCUCUUGUCCCCCAAGGCGCUGAUUACAUUCCCAAGAGCCAACAGAGGAUUGAGCAUCA
B8: 41762567_41763466_1074_CDS_ENSG00000137815_ENST00000389629|human|control|control (ssRNA)
RNA: GGGAGUUCUACAGUCCGACGAUCGUGACACCAGCGUUCUAGCUUAUGCCGUGAUAAUCGAACCCGAUUCAAUUCUUCAGGUAAGGAAACUGGUUGGGAUUUGGGAGGGAUCUCUUCUUUCUCCUCUUCUUCAUCAGACGAUGACAACAGAGGAUUGAGCAUCA
B9: chr7:56126341:56126342:+_ENSG00000146731_ENST00000540286|hu_mus|hu_hu_hu_mus_True|8_108 (ssRNA)
RNA: GGGAGUUCUACAGUCCGACGAUCCAUAUUUCUCCUUUUGGCUCUGCGCAGAGCUACGAUCCCUUCUUUCGCAAGGGCAUCUAAGGAAAAGGGGUCAAUCCCCUUUUGAUUAAUAACGACAAAUCCUUUAUCUGAAUCACCACACAACAGAGGAUUGAGCAUCA
B10: chr7:125984895:125984896:+_ENSMUSG00000030982_ENSMUST00000106553|mus_mus|FALSE|FALSE (ssRNA)
RNA: GGGAGUUCUACAGUCCGACGAUCGUAGAAGGCAAGAGCUUAAAACCAAUCUGUAUAAAAGUAAAAAUAACAAAAACUUCUAAAUUCCAGGAAGAGUUAAUGGCAGCCAAGCAGAUCUUCCAGGAUGUGGCACUGGGACUCCCGCAACAGAGGAUUGAGCAUCA
B11: chr2:177202359:177202360:+_ENSG00000128654_ENST00000249442|hu_hu|motif|central (ssRNA)
RNA: GGGAGUUCUACAGUCCGACGAUCCAUUCAAGUAAAACAUAUUUCAAAAGUUAAGACUCCUGAGACUAACACAUAACUCGGUGACAGCCUGCCUUUACCACGAUCUUCAAAAUAGUGCUGUUCAAUUCUCCUACAGAAAGCAAGCAACAGAGGAUUGAGCAUCA
B12: chrX:71549400:71549401:+_ENSMUSG00000019087_ENSMUST00000019231|mus_hu|mus_mus_mus_hu_False|18_28 (ssRNA)
RNA: GGGAGUUCUACAGUCCGACGAUCGCAGUAGGAAGAGGGAAGCUCUUCAGUCCAGUGCGCUGCAGGGUGGGAAAGCAACAACACGGACACCGUCCCACCCUCAACCCUCUCAGGUGUAUGUCACACAACAAUCUGGGUCAAAGACAACAGAGGAUUGAGCAUCA
B13: 25565639_25568521_1711_CDS_ENSG00000170558_ENST00000399380|human|control|control (ssRNA)
RNA: GGGAGUUCUACAGUCCGACGAUCCUCUUGAGGUAACACUUGAGGGGCAUUGUCAUUAAUAUCAAGUAAAUAGAUCUGCAGCGUUCCUGUUCCACUCAUAGGAGGAAUUCCAUUGUCAGAAGCAAGGAAAGUAGCAUUAUAUAUCAACAGAGGAUUGAGCAUCA
B14: 55414891_55415011_8049_CDS_ENSMUSG00000021488_ENSMUST00000099490|mouse|control|control (ssRNA)
RNA: GGGAGUUCUACAGUCCGACGAUCGUCUUGCCCUCUUCCAAGAGACCAGCAAGUUUGUGCCAAAGUUUGUGUGCCCCCAGCAGACCAGCAAGCCUGGGCUAGUGUUUGUCCAGCAACUAUAGGCCAAAGCCCUGCCCCUGGUGACAACAGAGGAUUGAGCAUCA
B15: chr6:38652254:38652255:-_ENSG00000124767_ENST00000373365|hu_hu|hu_hu_hu_mus_False|58_88 (ssRNA)
RNA: GGGAGUUCUACAGUCCGACGAUCCGAGAACUUCAUAGCAGGGAAGUCACAUUUUUGCAGGAGGGUCAGUCCAAGAACUCUAGUAUAAAAAUCCAGGGACUUCUUAGGAUCCUUAAUUCUUAGCAUCGUUUGCUGCAGUAGAAACAACAGAGGAUUGAGCAUCA
B16: chr11:100879890:100879891:+_ENSMUSG00000019302_ENSMUST00000044721|mus_mus|FALSE|FALSE (ssRNA)
RNA: GGGAGUUCUACAGUCCGACGAUCCUGGAAAACAUUCACAUCUGGAUUUAAAUCCCGAAAUUGGACCUUCCCAAGCUCUCCUAAUUCACUGACACAGCAAUAAGCAGCUUCAGACUGUAGAAAUAGCUGGGCCAGCGUCAUCUCCAACAGAGGAUUGAGCAUCA
B17: chr5:177632888:177632889:+_ENSG00000197451_ENST00000358344|hu_hu|motif|central (ssRNA)
RNA: GGGAGUUCUACAGUCCGACGAUCUAUUGUACAGUCAACGACCUCUCCAAAUUUAGUAAAAUAGUCUUUUAAAUCUUUUUUGCGGGUAUCCCAGCUCAGGCCACCAACGAACAUUUUUCCCGCGUCCUCCUCGUUCUUGCUGGCCAACAGAGGAUUGAGCAUCA
B18: chr3:150459880:150459881:-_ENSG00000181788_ENST00000312960|hu_mus|FALSE|FALSE (ssRNA)
RNA: GGGAGUUCUACAGUCCGACGAUCGGAAGAUGUACUGAAUAAAACAUCUAUUAAAAAACCUUUAUUAAACAUAGAGCGCUAUGCCCAAAUAACUUCCCAGGGUUAGGAAAGCCUCCUGGAGCCUCACUGACAGCAUGUAGAUAUCAACAGAGGAUUGAGCAUCA
B19: 47748213_47748333_168_3pUTR_ENSMUSG00000023988_ENSMUST00000024783|mouse|control|control (ssRNA)
RNA: GGGAGUUCUACAGUCCGACGAUCGCCACUGAGAGAUCACAGUGCCCCCCAGCGUUAGGAGGCCGGAAGUUCCUCAUCUAUUACUCUCAGGAAGAGCUUCGGGACCUAUAGCAGGAGCCCCCAAAUUCUCAGGUAAUCUCAUUACAACAGAGGAUUGAGCAUCA
B20: chrX:140365796:140365797:-_ENSMUSG00000031285_ENSMUST00000033642|mus_mus|mus_mus_mus_hu_False|8_78 (ssRNA)
RNA: GGGAGUUCUACAGUCCGACGAUCCUUCUCAUUACUCAGUGCCUGCAAGGUUCUGGUUCUGUAGAAGCUACAGUGGGCGCUGUGAGUGGGGCUAGGCAACCCAUUCAUCCGGGAGCCUCGCAUGUUCCUAGAUGCUUUAUCUCUCAACAGAGGAUUGAGCAUCA
B21: 51264051_51265094_2089_3pUTR_ENSMUSG00000063273_ENSMUST00000029303|mouse|control|control (ssRNA)
RNA: GGGAGUUCUACAGUCCGACGAUCAUUUUUUUUCUCUUCUUCUAUCUGGGCUUUCUUUUGAGCUCUUCUUUGUUUAUUACGCAGUUUCUUUAGCUCUUUGUCAGACAUGUUUGCUGUAUCAGCCUCGUGUUCUUUGUUCUCAUCCAACAGAGGAUUGAGCAUCA
B22: 115928876_115943408_917_3pUTR_ENSMUSG00000028698_ENSMUST00000030464|mouse|control|control (ssRNA)
RNA: GGGAGUUCUACAGUCCGACGAUCAUUAUUUCCUCCCUUCCUCAAAGUCAAUGUAUAAUCCCCCUGCAUUUUCGUUGAGGCAUCACGAACUAAGAAGGUACCAUCUGGCAUGUCCCGCAAUUUGUCAUUUACCUCUUCCCUGGACAACAGAGGAUUGAGCAUCA

The list shows a part of the results.

This assay concerns the target T1, UNK ZnF1-3 (human, UniProt Q9C0B0 31-174).
T1 sequence: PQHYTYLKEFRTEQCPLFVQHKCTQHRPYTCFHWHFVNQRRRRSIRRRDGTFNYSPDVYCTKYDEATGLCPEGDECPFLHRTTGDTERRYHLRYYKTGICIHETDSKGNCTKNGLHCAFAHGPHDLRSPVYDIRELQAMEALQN
Briefly: nsRBNS (natural sequence RNA bind-n-seq); RBNS binding buffer (assumed for nsRBNS): 25 mM Tris pH 7.5, 150 mM KCl, 3 mM MgCl2, 0.01% Triton X-100, 500 ug/ml BSA, 20 U/ml SUPERase-In, 4 C; UNK is unkempt and MSI1 is Musashi-1; names of the RNAs are library labels; protein concentration not given here; high values mean tight binding.
As to B1, the binding signal amounted to 0.776 enrichment R.

Turning to B2, the binding signal worked out at 1.09 enrichment R.

B3: the binding signal turned out to be 1.08 enrichment R.

B4 registered a binding signal of 1.22 enrichment R.

Molecule B5 came in with a binding signal of 0.874 enrichment R.

As to B6, the binding signal was 1.1 enrichment R.

In the case of B7, the binding signal is 0.711 enrichment R.

The molecule B8 registered a binding signal of 0.749 enrichment R.

B9 showed a binding signal of 0.875 enrichment R.

B10 returned a binding signal of 1.82 enrichment R.

In the case of B11, the binding signal worked out at 1.31 enrichment R.

Consider B12, for which the binding signal was determined as 0.71 enrichment R.

Consider B13, for which the binding signal was determined as 2.39 enrichment R.

Consider B14, for which the binding signal was found to be 1.01 enrichment R.

In turn, B15 came in with a binding signal of 1.35 enrichment R.

Take B16: the binding signal stood at 0.618 enrichment R.

In turn, B17 yielded a binding signal of 1.85 enrichment R.

In turn, B18 returned a binding signal of 2 enrichment R.

With B19, the binding signal came to 0.782 enrichment R.

B20: the binding signal was determined as 0.475 enrichment R.

Consider B21, for which the binding signal was determined as 0.126 enrichment R.

B22 returned a binding signal of 1.34 enrichment R.

Values taken from paper PMC12136788.
